The results in this text go back to the supplement of paper PMC11348887.

Structures are written as SMILES. Counter-ions that a name gives are not always drawn. The list shows a part of the results. Cut-off read from the data, not from the text of the source: active = -2 or less and inactive = the rest. Repeats are few or missing, and single values can be far off.
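Note: nuclei counted from DAPI counterstain by automated high-content image analysis, four fields per well at ×20 in 384-well plates, with sequential b-score then z-score normalization.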

This test deals with hPSC-derived cortical neurons (WA09). In words: nuclei number (viability) z-score; higher = more surviving cells. The note with it: 5 µM; treatment: days 7-14 after plating, readout day 21.
`COC(=O)C1=C(C)NC(C)=C(C(=O)OC)C1c1ccccc1[N+](=O)[O-]` [Nifedipine]: the “nuclei number (z-score)” value is inactive: -0.723. Under `CCCCCCCC(=O)N[C@H](CN1CCCC1)[C@H](O)c1ccc2c(c1)OCCO2` [Eliglustat Tartrate] stands inactive: -0.104; under `NC(=O)c1cccc2[nH]c(-c3ccc(C4CCCN4)cc3F)nc12` (configuration not stated), inactive: 0.00843; under `CC(C)NC[C@H](O)COc1ccc(CCOCC2CC2)cc1` [Levobetaxolol HCl], inactive: 0.32. In the case of `COC(=O)N1CCN(Cc2cccc(NC(=O)Nc3ccc(C)nc3)c2F)CC1`, the “nuclei number (z-score)” value was inactive: 2.48.

With `O=C(O)CSc1cc(NS(=O)(=O)c2ccc(Br)cc2)c2ccccc2c1O`, the “nuclei number (z-score)” value is inactive: 0.344.

For the molecule `CN(C)CCCN1c2ccccc2CCc2ccc(Cl)cc21` [Clomipramine HCl], the “nuclei number (z-score)” value was inactive: 0.0982. With `Cc1cc(NC(=O)C2=C(O)c3ccccc3S(=O)(=O)N2C)no1` [Isoxicam] the figure was inactive: 0.387; with `Nc1ccc(O)c(C(=O)O)c1` [Mesalamine], inactive: 3.79. Turning to `Clc1ccccc1CN1CCc2sccc2C1` [Ticlopidine HCl], the “nuclei number (z-score)” value was inactive: 0.00193. Take `O=C(O)P(=O)(O)O` [Foscarnet Sodium]: the “nuclei number (z-score)” value was inactive: -0.322.

For the molecule `CC(C)(C)NS(=O)(=O)c1cncc(-c2cc(F)c3nc(N)nn3c2)c1`, the “nuclei number (z-score)” value is inactive: 0.0161. With `Cc1nc(C)c(Cl)c(O)c1Cl` [Clopidol] the figure was inactive: 0.0736; with `CCN(CC)CCCC(C)Nc1c2ccc(Cl)cc2nc2ccc(OC)cc12` (configuration not stated) [Quinacrine 2HCl], active: -3.2. In the case of `CC(=O)N1CCN(c2ccc(OCC3COC(Cn4ccnc4)(c4ccc(Cl)cc4Cl)O3)cc2)CC1` (configuration not stated) [Ketoconazole], the “nuclei number (z-score)” value is inactive: -0.551. With `CN(CCOc1ccc(NS(C)(=O)=O)cc1)CCc1ccc(NS(C)(=O)=O)cc1` [Dofetilide], the “nuclei number (z-score)” value was inactive: 7.39. With `Cc1[nH]c(/C=C2\C(=O)Nc3ccccc32)c(C)c1CCC(=O)O` [TSU-68 (SU6668_ Orantinib)] the figure was inactive: 0.941. With `CNc1ncc2cc(-c3cc(NC(=O)NCCC(C)(C)C)c(F)cc3C)c(C)nc2n1` the figure was inactive: 0.405; with `COc1ccc2cccc(CCNC(C)=O)c2c1` [Agomelatine], inactive: -0.671; with `COc1cc(C=O)ccc1O` [Vanillin], inactive: 6.6. With `C1=N/C2=N/c3ccc(OCCN4CCCC4)c(c3)COC/C=C/COCc3cccc(c3)C(=C1)N2` [Pacritinib (SB1518)] the figure was active: -4.71. With `CN(C)C(=O)c1ccc(S(=O)(=O)c2ccc(NC(=O)[C@@](C)(O)C(F)(F)F)c(Cl)c2)cc1`, the “nuclei number (z-score)” value was inactive: 1.28. With `C#C[C@]1(O)CC[C@H]2[C@@H]3CCc4cc(OC)ccc4[C@H]3CC[C@@]21C` [Mestranol] the figure was inactive: 0.427; with `CC(C)NCC(O)c1ccc(NS(C)(=O)=O)cc1` (configuration not stated) [Sotalol], inactive: -0.556; with `CO[C@H]1C[C@@H]2CC[C@@H](C)[C@@](O)(O2)C(=O)C(=O)N2CCCC[C@H]2C(=O)O[C@H]([C@H](C)C[C@@H]2CC[C@@H](O)[C@H](OC)C2)CC(=O)[C@H](C)/C=C(\C)[C@@H](O)[C@@H](OC)C(=O)[C@H](C)C[C@H](C)/C=C/C=C/C=C/1C` [Rapamycin (Sirolimus)], inactive: -0.204.

`N[C@@H]1CCCN(c2c(/C=C3\SC(=O)NC3=O)cccc2-c2ccccc2)C1`: the “nuclei number (z-score)” value was inactive: 1.37.

Take `N#Cc1ccc2[nH]c(O)c(-c3ccc(CN4CCOCC4)cn3)c2c1`: the “nuclei number (z-score)” value is inactive: -0.721. `Oc1ccc(Nc2nc(-c3ccc(Cl)cc3)cs2)cc1`: the “nuclei number (z-score)” value is inactive: -0.287. With `NS(=O)(=O)c1ccc(C(=O)O)cc1` [Carzenide] the figure was inactive: 0.186. On to `COc1cc2ncnc(Nc3ccc(Cl)cc3F)c2cc1OC`, for which the “nuclei number (z-score)” value is inactive: 0.584. For `N#C[C@@H]1CCCN1C(=O)CNC12CC3CC(CC(O)(C3)C1)C2` [Vildagliptin (LAF-237)], the “nuclei number (z-score)” value is inactive: 1.48. As to `CCN(CC)CCN(Cc1ccc(-c2ccc(C(F)(F)F)cc2)cc1)C(=O)Cn1c(SCc2ccc(F)cc2)nc(=O)c2c1CCC2`, the “nuclei number (z-score)” value was active: -5.8. With `O=C(O[C@@H]1Cc2c(O)cc(O)cc2O[C@@H]1c1cc(O)c(O)c(O)c1)c1cc(O)c(O)c(O)c1` [(-)-Epigallocatechin Gallate], the “nuclei number (z-score)” value was inactive: 2. Turning to `CC(C)C[C@H](NC(=O)CNC(=O)c1cc(Cl)ccc1Cl)B(O)O`, the “nuclei number (z-score)” value is active: -7.45. In the case of `CC(C)(CO)[C@@H](O)C(=O)NCCCO` [D panthenol], the “nuclei number (z-score)” value was inactive: 0.164.

On to `COC(=O)c1ccc2c(c1)NC(=O)/C2=C(\Nc1ccc(N(C)C(=O)CN2CCN(C)CC2)cc1)c1ccccc1` [Nintedanib (BIBF 1120)], for which the “nuclei number (z-score)” value is inactive: -0.725. Take `CNC[C@H](O)c1cccc(O)c1` [Phenylephrine HCl]: the “nuclei number (z-score)” value is inactive: 3.11. With `N[C@@H]1CN(c2c(F)cc3c(=O)c(C(=O)O)cn([C@@H]4C[C@@H]4F)c3c2Cl)CC12CC2` [Sitafloxacin Hydrate] the figure was inactive: -0.62; with `CCOc1ccn(-c2ccc(F)cc2)c(=O)c1C(=O)Nc1ccc(Oc2ccnc(N)c2Cl)c(F)c1`, inactive: 1.47.

`CCC(=O)NS(=O)(=O)c1ccc(-c2c(-c3ccccc3)noc2C)cc1` [Parecoxib]: the “nuclei number (z-score)” value was inactive: -0.0231. In the case of `CCn1cc(-c2ccnc3[nH]c(-c4cccc(CN(C)C)c4)cc23)c(-c2ccc(NC(=O)N(C)C)cc2)n1`, the “nuclei number (z-score)” value was inactive: 0.845. With `Cc1nc(Nc2n[nH]c3c2CN(C(=O)N[C@H](CN(C)C)c2ccccc2)C3(C)C)c2sccc2n1` the figure was active: -4.2. Under `CSc1cccc(Nc2ncc3cc(-c4c(Cl)cccc4Cl)c(=O)n(C)c3n2)c1` stands inactive: -0.388; under `Cc1cc(N2CCOCC2)ccc1Nc1nc(NC2CCCCC2)c2[nH]cnc2n1`, inactive: -0.16. Consider `C[C@H](NC(=O)Cc1cc(F)cc(F)c1)C(=O)N[C@@H]1C(=O)N(C)c2ccccc2-c2ccccc21`, for which the “nuclei number (z-score)” value was inactive: 0.315. With `O=C(O)c1ccc(Nc2ncc3c(n2)-c2ccc(Cl)cc2C(c2c(F)cccc2F)=NC3)cc1` the figure was inactive: 1.78.

For `OCc1ccc(-c2ccc(-c3ccc(CO)s3)o2)s1`, the “nuclei number (z-score)” value is inactive: 0.175.
